Out of some 150,000 compounds screened, about 540 (0.36%) showed an effect of 50% or more. The list shows a part of the results.
The compounds below were run on Plasmodium falciparum (assay: Primary screen in NF54 nanoGlo assay, in single point, at 2uM, 72h; a lower Z score goes with more inhibition). Details: timepoint 72 hour.
Format: functional, Erythrocyte
For `c1cc(CN(Cc2ccoc2)C2CCCCC2)on1`, the “% Inhibition” value was -1% and the Z score was 0.13. In the case of `CC[C@H](NS(C)(=O)=O)c1ccc(C)cc1`, the “% Inhibition” value is reported as -2% and the Z score is reported as 0.18. For `CCc1nnsc1C(=O)NCc1nc2ccccc2s1`, the “% Inhibition” value was -7% and the Z score was 1.19. With `COc1ccccc1-c1ccc(C(=O)N(C)CCO)c(N2CCN(c3ccccc3F)CC2)n1` the “% Inhibition” value was 22% and the Z score was -2.76. For `CC(C(=O)NC1(C#N)CCCCC1)N1CCCC(c2ccn[nH]2)C1` (configuration not stated), the “% Inhibition” value was 1% and the Z score was -0.1. With `Nc1cc(CN2CCCC2CC(O)c2ccc(F)cc2)ccn1` (configuration not stated) the “% Inhibition” value was -13% and the Z score was 1.76. `C#C[C@](C)(CC)NCc1cn(C(C)C)nc1C` was tested, and the “% Inhibition” value was -13% and the Z score was 1.71. With `Cc1cn(CCNc2nc(C3CCCC3)nc3c2CNC3)nn1` the “% Inhibition” value was -2% and the Z score was 0.38. In the case of `Cc1ocnc1CNC(=O)NC[C@H](Cc1ccccc1)C(C)C`, the “% Inhibition” value is reported as -11% and the Z score is reported as 0.9. With `Cc1ccc(S(=O)(=O)N2CCC3(CC2)N[C@@H](Cc2ccccc2)C(=O)N3Cc2ccc(F)cc2)cc1` the “% Inhibition” value was -9% and the Z score was 1.38. For `O=S(=O)(c1ccc(-c2noc(-c3ccccc3Br)n2)cc1)N1CCCCC1`, the “% Inhibition” value was -1% and the Z score was 0.18. In the case of `Cc1cccc(CNC(=O)[C@@H]2CCN(c3ccc4ccccc4c3)C2=O)c1`, the “% Inhibition” value is reported as -2% and the Z score is reported as 0.22. `O=C(O)[C@@H]1CN(C(=O)C2(c3ccccc3)CCCC2)CCO1` was tested, and the “% Inhibition” value was 7% and the Z score was -0.89. In the case of `CCOc1ccccc1NC(=O)N1CCN(Cc2ccc(C)cc2)C(=O)[C@@H]1C`, the “% Inhibition” value is reported as -9% and the Z score is reported as 0.97. With `CC(CN1CCC(N2CCOCC2)C1)c1cccc(Cl)c1` (configuration not stated) the “% Inhibition” value was 5% and the Z score was -0.64. In the case of `Cc1cnc(CNC(=O)CC(C)(C)CC(=O)c2ccccc2)s1`, the “% Inhibition” value is reported as 2% and the Z score is reported as -0.3. With `CCc1ccccc1N(C)C(=O)Cn1ccc2c(=O)n(C)c(=O)n(C)c21` the “% Inhibition” value was -29% and the Z score was 2.87. For `Cc1cc(C)n(C[C@H](C)Nc2ccnc(C(=O)NC(C)C)c2)n1`, the “% Inhibition” value was -4% and the Z score was 0.53. With `COc1cc(F)c(CN2CCN3CCN(C)C[C@H]3C2)c(F)c1` the “% Inhibition” value was 0% and the Z score was -0.03. `Cc1ncsc1CCc1nc(Cc2cccnc2)nn1CCO` was tested, and the “% Inhibition” value was -7% and the Z score was 0.87. With `Cc1cc(C(=O)N2CCC[C@H](c3nccn3C)C2)c2c(C)noc2n1` the “% Inhibition” value was -20% and the Z score was 2.27. For `O=C(NCc1nccn1CCCc1ccccc1)N1CCC[C@H](O)C1`, the “% Inhibition” value was -4% and the Z score was 0.51. `C#CCN(CC(=O)O)Cc1ccccc1C1CC1` was tested, and the “% Inhibition” value was -4% and the Z score was 0.75. In the case of `CCCn1cnc2cc(-c3noc(-c4ccc(C)cc4)n3)ccc21`, the “% Inhibition” value is reported as -18% and the Z score is reported as 2.32. `CCN(CCOc1cccc(C)c1)C(=O)Cc1n[nH]c(NC(C)=O)n1` was tested, and the “% Inhibition” value was -13% and the Z score was 2.07. With `Cc1nn(C)cc1C(C)NC(=O)N1CCCC(CN2CCOCC2)C1` (configuration not stated) the “% Inhibition” value was -5% and the Z score was 0.46. With `Cc1cnn(-c2ccccc2)c1C(=O)NC1CCN(Cc2ccccc2)CC1` the “% Inhibition” value was -10% and the Z score was 1.45. For `O=C(c1cnn2ccccc12)N1CCC(c2c[nH]c3ccccc23)CC1`, the “% Inhibition” value was 34% and the Z score was -3.89. For `CCc1ccccc1-n1c(=O)[nH]c2c(c1=O)C(CC)(CC)Cc1ccccc1-2`, the “% Inhibition” value was 2% and the Z score was -0.27. `CO[C@H]1C[C@H](C(=O)Nc2cc(Br)ccc2O)N(C(=O)OC(C)(C)C)C1` was tested, and the “% Inhibition” value was 8% and the Z score was -1.09. `N#CCn1cc(S(=O)(=O)N2CCOCC2)ccc1=O` was tested, and the “% Inhibition” value was -7% and the Z score was 1.21. With `O=C(Cc1ccc(NS(=O)(=O)c2ccc3c(c2)CCCC3)cc1)N1CCOCC1` the “% Inhibition” value was -4% and the Z score was 0.63. For `Cc1noc(C)c1C(=O)NC[C@](C)(O)c1cc2ccccc2o1`, the “% Inhibition” value was 1% and the Z score was -0.19. In the case of `C[C@H](Nc1ccc2nc(C3CC3)oc2c1)C1CCS(=O)(=O)CC1`, the “% Inhibition” value is reported as 2% and the Z score is reported as -0.31. For `COCn1ccc(C(=O)Nc2ccnc(C)c2Cl)n1`, the “% Inhibition” value was -12% and the Z score was 1.42. In the case of `O=C(COC(=O)c1c(F)cccc1Cl)Nc1ccc2c(c1)CCC2`, the “% Inhibition” value is reported as -6% and the Z score is reported as 1.09. In the case of `FC(F)(F)C1CCC(c2nc(C3CCCCO3)no2)C1` (configuration not stated), the “% Inhibition” value is reported as -7% and the Z score is reported as 0.75. `CCOCCCNC(=O)c1cn2ccnc(-c3ccc(F)cc3)c2n1` was tested, and the “% Inhibition” value was -2% and the Z score was 0.34. With `COc1ncc(Cl)c(N(C)CC2(O)CCCC2)n1` the “% Inhibition” value was -19% and the Z score was 2.45. With `Cc1nn(C)c(C)c1CCC(=O)N1CC[C@H](N2CCOCC2)[C@H](CCCO)C1` the “% Inhibition” value was -8% and the Z score was 1.29. For `CN(CCc1ccc2c(c1)CCO2)C1CN(c2ccc3nncn3n2)C1`, the “% Inhibition” value was 3% and the Z score was -0.52. For `COC[C@H]1CCN(C(=O)c2cncc(Cl)c2)C1`, the “% Inhibition” value was -12% and the Z score was 1.57. With `CCc1nc(NS(=O)(=O)c2ccc3ccccc3c2)no1` the “% Inhibition” value was -11% and the Z score was 1.13. `COc1ccc(S(=O)(=O)C2CCN(C(=O)Cn3ncccc3=O)CC2)cc1` was tested, and the “% Inhibition” value was -14% and the Z score was 1.8. `CN(C(=O)NCc1ncnn1-c1ccccc1)C1CCC(C)(C)CC1` was tested, and the “% Inhibition” value was -8% and the Z score was 1.74. In the case of `COc1ccc(-c2cnc(C)n2C)cn1`, the “% Inhibition” value is reported as 8% and the Z score is reported as -1.36. With `O=C(CC[C@@H]1CCCN2CCCC[C@H]12)NCCn1cc(Cl)cn1` the “% Inhibition” value was -27% and the Z score was 2.9. With `CO[C@H]1COC[C@@H]1NCc1ccccc1-c1ccco1` the “% Inhibition” value was -8% and the Z score was 1.12. In the case of `O=C(Nc1ccc(Cl)cn1)N1CC[C@H](O)C1`, the “% Inhibition” value is reported as -8% and the Z score is reported as 1.12. With `Cc1ccnc(NC(=O)C2CCC(F)(F)CC2)n1` the “% Inhibition” value was -8% and the Z score was 1.54. With `C=CCCCc1nc(-c2ncoc2C)no1` the “% Inhibition” value was -8% and the Z score was 1.49. For `CC(=O)N1CCCN(C(=O)c2cn(C)c3ccccc23)CC1`, the “% Inhibition” value was -13% and the Z score was 1.73. For `Cc1nc(C)n(C[C@H]2CCCCN2c2cnc3ccccc3n2)n1`, the “% Inhibition” value was 4% and the Z score was -0.82. `CN(C)Cc1cc(CN2CCCC[C@H]2C(=O)NCC(F)F)no1` was tested, and the “% Inhibition” value was 2% and the Z score was -0.23. With `O=C(N1CCOCC1)N1c2ccccc2C[C@H](N2CCOCC2)c2ccccc21` the “% Inhibition” value was -16% and the Z score was 3.06. For `c1cnn(Cc2ccc(-c3nc(C4CCOCC4)n[nH]3)o2)c1`, the “% Inhibition” value was -12% and the Z score was 2.43. `Cc1cnc(C(=O)N2CCc3onc(-c4ccc5c(c4)OCO5)c3C2)cn1` was tested, and the “% Inhibition” value was -7% and the Z score was 1.08. `Cc1c(F)cccc1NC(=O)N1CCC(N2CC(F)(F)C[C@H]2COCC2CC2)CC1` was tested, and the “% Inhibition” value was -9% and the Z score was 1.61. With `O=C(Nc1nnc(-c2cccs2)[nH]1)c1[nH]nc(C2CC2)c1Cl` the “% Inhibition” value was -1% and the Z score was 0.11. `CCCc1nc(N2CCN(C(=O)Nc3cccc(C(F)(F)F)c3)CC2)c2c(C)nn(-c3ccccc3)c2n1` was tested, and the “% Inhibition” value was 3% and the Z score was -0.55. With `CCc1nnc(CC2CCN(C(=O)c3ccco3)CC2)[nH]1` the “% Inhibition” value was -4% and the Z score was 0.57. `COC(=O)c1ncn(Cc2nc(C(C)(C)C)no2)n1` was tested, and the “% Inhibition” value was -9% and the Z score was 0.83. With `Cc1noc(-c2ccccc2OC(=O)c2ccccc2)n1` the “% Inhibition” value was -10% and the Z score was 1.68. `CN1CCc2c(NC(=O)N3CCOC[C@H]3C3CC3)cccc21` was tested, and the “% Inhibition” value was 7% and the Z score was -0.88. With `Cn1c(=O)[nH]c2ncc(-c3cccc(C(N)=O)c3)cc21` the “% Inhibition” value was -17% and the Z score was 1.5. With `CC(C)(C)c1cc2c(=O)[nH][nH]c(=N)c2c(=O)[nH]1` the “% Inhibition” value was -6% and the Z score was 0.82. With `O=C1NCCCCCCN(C(=O)Nc2ccccc2)[C@H]2C[C@H](C(=O)N3CCc4ccccc4C3)C[C@@H]12` the “% Inhibition” value was -1% and the Z score was 0.2. With `CN(C)C[C@H]1CN(C(=O)Nc2cccc(NC(=O)c3ccccc3)c2)CCO1` the “% Inhibition” value was -42% and the Z score was 4.89. With `Cc1nc(CNc2nccn3nnnc23)[nH]c1C` the “% Inhibition” value was -3% and the Z score was 0.32. For `O=C(c1ccccc1OC1CCC1)N1CCN2CCC1C2` (configuration not stated), the “% Inhibition” value was -13% and the Z score was 2.37. `O=S(=O)(Cc1ccccc1)N1CC(OCc2ccc(F)cc2)C1` was tested, and the “% Inhibition” value was -7% and the Z score was 0.62. With `O=C(O)[C@H]1c2ccoc2CCN1Cc1ccccc1F` the “% Inhibition” value was -3% and the Z score was 0.44. In the case of `O=C(NCCc1ccc2c(c1)CCO2)N1CC[C@H](N2CC=CC2)C1`, the “% Inhibition” value is reported as -2% and the Z score is reported as 0.26. With `COCCN(C)CCCNCc1cccc(Br)c1` the “% Inhibition” value was -11% and the Z score was 0.95. For `CC(C)c1cc(=O)[nH]c(-n2nc(C3CC3)cc2NC(=O)Cc2ccc(Cl)cc2)n1`, the “% Inhibition” value was 74% and the Z score was -12.5. With `CNS(=O)(=O)[C@H]1CCN(C(=O)CCC(C)(C)c2ccccc2)C1` the “% Inhibition” value was -9% and the Z score was 1.17. For `c1ccc2sc(CN3CC[C@@H]4NCCC[C@@H]4C3)cc2c1`, the “% Inhibition” value was -4% and the Z score was 0.7. With `CC(C)Cc1nc(C#N)c(NC[C@@H](c2ccsc2)N(C)C)o1` the “% Inhibition” value was -8% and the Z score was 1. In the case of `Cc1cccnc1NCCn1ccnc1-c1ccncc1`, the “% Inhibition” value is reported as 10% and the Z score is reported as -1.39. With `O=S(=O)(Oc1ccc(-n2ccnc2)cc1)c1cncc(Cl)c1` the “% Inhibition” value was -8% and the Z score was 1.08. For `CC(C)(C)n1ncn(Cc2nnnn2-c2ccccc2)c1=O`, the “% Inhibition” value was -1% and the Z score was 0.11. For `O=C(NCc1ccccc1)[C@@H]1COC2(CCN(C(=O)c3ccc(Cl)cc3)CC2)N1C(=O)c1cccc(F)c1`, the “% Inhibition” value was 1% and the Z score was -0.13. `CNC(=O)[C@@H]1CN(Cc2ccc(-c3c(F)cccc3F)o2)CCO1` was tested, and the “% Inhibition” value was -9% and the Z score was 1.32. With `Nc1c(Oc2ccc(Cl)cc2)ccc2ncccc12` the “% Inhibition” value was 12% and the Z score was -1.06. For `CCOc1cc(N2CC(C)(C)[C@H]2c2ccncc2)ncn1`, the “% Inhibition” value was -9% and the Z score was 1.12. With `COCC(=O)NC1CN(C(=O)[C@H]2C3CCC(CC3)[C@@H]2C(F)(F)F)C1` the “% Inhibition” value was -8% and the Z score was 1.27.
